# Reference: PubChem BioAssay (NCATS)
# The inconclusive results got no clear call from the source; some entries with a clear call stand among them for comparison. No potency is given beside an inconclusive call; the fits are too rough. Activity calls are given as the source filed them. Calls follow the shape of the dose curve; as a rule, active = well fitted cell-killing curve with a large enough effect; inconclusive = small, poorly fitted or top-dose-only effect, or effect the other way; inactive = no such curve, though single readings can be large or run the other way.
# Assay: Viability qHTS for spleen associated tyrosine kinase inhibitor (SYKi) drug resistant MV4-11 cells (AID 1963824); also: nearly all actives have a fitted effect of over 35% in size
# Conditions: SYKi-resistant MV4-11 viability, CellTiter-Glo, 72 h; series mostly up to 45 µM; viability, % of control: at the top concentration
# Outline: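 CellTiter-Glo luminescence, read 10 min after reagent addition, reports viability after a 72 hr compound exposure. Cells are an MV4-11 line made resistant to SYK inhibition, seeded at 500 per well onto compound-containing plates.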
# Potency is read from the fitted curve at half-maximal effect; tags tell the direction and shape of the fitted curve.
SMILES,Potency,"viability, % of control"
CC(=O)OCC1(O)CCC2C(COC3OC(CO)C(O)C(O)C3OC(=O)/C=C/c3ccc(O)cc3)=COC(OC(=O)CC(C)C)C21 (centres undefined),"inconclusive [cytotoxic, single point]",
NC(=O)[C@@H]1CSSCCC(=O)N[C@@H](CCCCN=C(N)N)C(=O)NCC(=O)N[C@@H](CC(=O)O)C(=O)N[C@@H](Cc2c[nH]c3ccccc23)C(=O)N2CCC[C@H]2C(=O)N1,"inconclusive [cytotoxic, partial curve, poor fit]",
C/C=C/c1ccc(OC)cc1,,inactive: 74.3%
Cn1c(=O)cc(N2CCCC(N)C2)n(Cc2ccccc2C#N)c1=O (centres undefined),,inactive: 69.7%
O=C(O)CCC(=O)Nc1ccc(S(=O)(=O)Nc2nccs2)cc1,,inactive: 76.3%
CCCCCCCCCCCCCCCC(=O)O,,inactive: 79%
C[C@H]1CO[C@@H]2Cn3cc(C(=O)NCc4ccc(F)cc4F)c(=O)c(O)c3C(=O)N12,active: 7.31 µM,
CCCc1ccc(OCC(=O)N(Cc2nc(-c3cccnc3)no2)C(C)C)cc1,"inconclusive [cytotoxic, partial curve]",
CC(=O)Oc1ccc(C)cc1,,inactive: 98.9%
C=CC(C)(O)CC/C=C(\C)C(=O)OC1C(O)C(CO)OC(OC(=O)C23CCC(C)(C)CC2C2=CCC4C5(C)CCC(OC6OC(COC7OCC(OC(C)=O)C(O)C7OC7OC(COC(C)=O)C(O)C(O)C7O)C(O)C(O)C6O)C(C)(C)C5CCC4(C)C2(C)C(O)C3O)C1OC1OCC(OC2OCC(O)C(OC3OCC(O)C(O)C3O)C2O)C(O)C1O (centres undefined),"inconclusive [cytotoxic, single point]",
C=C(C(=O)O)C1CCC2(C)CCCC(C)(O)C2C1 (centres undefined),,inactive: 79.2%
CC1=C(C(=O)OC2CCCCC2)C(c2ccc([N+](=O)[O-])cc2)C2=C(CC(C)(C)CC2=O)N1 (centres undefined),"inconclusive [cytotoxic, single point]",
CCC(C)/C=C(C)/C=C/c1cc2c(cn1)C(=O)C(C)(OC(C)=O)C(O)=C2Cl (centres undefined),"inconclusive [cytotoxic, partial curve, poor fit]",
C=C[C@@](C)(CCC=C(C)C)O[C@@H]1O[C@H](CO[C@@H]2OC[C@H](O)[C@H](O)[C@H]2O)[C@@H](O)[C@H](O)[C@H]1O,"inconclusive [cytotoxic, full curve]",
COC(=O)CC(O)CC(O)/C=C/c1c(C)ccc2c1C(O)CC(C)C2 (centres undefined),"inconclusive [cytotoxic, single point]",
C[C@@H]1C(=O)O[C@H]2[C@H](O)C34[C@H]5C[C@@H](C(C)(C)C)C36[C@@H](OC(=O)[C@@H]6O)O[C@@]4(C(=O)O5)[C@@]12O (some centres undefined),,inactive: 90.8% [at 17.3 µM]
CN(C)CCC(CSc1ccccc1)Nc1ccc(S(=O)(=O)NC(=O)c2ccc(N3CCN(Cc4ccccc4-c4ccc(Cl)cc4)CC3)cc2)cc1[N+](=O)[O-] (centres undefined),"inconclusive [cytotoxic, full curve]",
CCc1cnc(N2CCC(c3nc(COc4ccc(-n5cnnn5)cc4)cs3)CC2)nc1,"inconclusive [cytotoxic, full curve]",
C[C@@H](N)C(=O)O,,inactive: 76.8%
C/C=C/C=C/C=C/C(=O)O[C@@H]1[C@@H](OC)C2=C(C(=O)N(C(C)C(=O)O)C2)[C@@]2(C)CCCC(C)(C)[C@H]12 (some centres undefined),,inactive: 70.3% [at 17.3 µM]
C=C1CC[C@H]2[C@@](C)(CCC(O)[C@@]2(C)CO)[C@@H]1CCC1=CCOC1=O (some centres undefined),"inconclusive [cytotoxic, partial curve, poor fit]",
CC[C@@H](C)[C@H](NC(=O)C(C)(C)NC(=O)[C@H](CCC(N)=O)NC(=O)C(C)(CC)NC(=O)[C@H](Cc1c[nH]c2ccccc12)NC(C)=O)C(=O)N[C@H](C(=O)NC(C)(C)C(=O)N[C@@H](CC(C)C)C(=O)NC(C)(C)C(=O)N1CCC[C@H]1C(=O)N[C@@H](CCC(N)=O)C(=O)NC(C)(C)C(=O)N1CC(O)C[C@H]1C(=O)NC(C)(CC)C(=O)C1CC[C@@H](C(=O)N[C@@H](Cc2ccccc2)C(=O)NCC(=O)O)N1)C(C)O (some centres undefined),"inconclusive [cytotoxic, partial curve]",
O=S(=O)(c1cccc2c(I)cccc12)N1CCCNCC1,"inconclusive [cytotoxic, full curve]",
CC/C=C/C(O)C(O)C1=C(C)C(=O)C2(O1)C(=O)NC(OC)(C(=O)c1ccccc1)C2O (centres undefined),,inactive: 96.5% [at 17.3 µM]
